Results from the supplement of paper PMC11125491.
± gives the standard deviation of the averaged measurements. Growth of baker's yeast expressing single-residue variants of Pneumocystis jirovecii dihydrofolate reductase in 8.8 or 44 µM methotrexate (about 75% and 90% inhibition of the wild type). Selection coefficient per generation; 0 = like wild type, above 0 = less sensitive, below 0 = more sensitive or loss of function. No active / inactive call per row; the paper calls resistant above 0.220 (8.8 µM) or 0.243 (44 µM) together with a significance test. At 44 µM about 15% of codons end with one read or none, so the lowest values are floors (replicate rank correlation 0.74; 0.94 at 8.8 µM).

B1: UniProt A0EPZ9; numbered along this chain (parent)
chain: MDWQKSLTLIVALTLSRGIGLKNDLPWKLKSDMMFFSRVTSGLLVTRSTGQMNVVLMGRKTWESLPAHSRPLKNRINVVISRQEVLDLGGGAYHARSLDDALALLSQIYDSTSKIQLNRVFVIGGGELCKAAMEHSRLNRIIATVIHNEVDCDVFFPIDFRSSQSCLPWRKQDHSVLEAWVGSKVPQGKINENGFIYEFEMWIRDI

Variants of: B1
Test: selection coefficient against synonymous wild-type codons (log2 per generation); higher = faster growth than wild type
Settings: with Saccharomyces cerevisiae carrying the variant on a plasmid
Procedure: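 Pooled growth of yeast carrying single-residue variants of P. jirovecii dihydrofolate reductase (own DFR1 gene intact), two passages at 30 °C, three cultures, sequenced before and after. Codons with under 15 starting reads are left out; codons of one change are averaged.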

Variant | selection coefficient against synonymous wild-type codons (log2) (methotrexate 8.8 µM) | selection coefficient against synonymous wild-type codons (log2) (methotrexate 44 µM)
A101P | -0.619 ± 0.1 | -0.16 ± 0.046
L88V | -0.0702 ± 0.044 | -0.101 ± 0.18
L88N | -0.315 ± 0.047 | -0.252 ± 0.044
L88K | -0.491 ± 0.049 | -0.232 ± 0.057
N139R | -0.246 ± 0.077 | -0.218 ± 0.11
N139G | -0.0367 ± 0.036 | -0.0283 ± 0.054
S81T | -0.515 ± 0.071 | -0.212 ± 0.081
S81W | -0.632 ± 0.052 | -0.13 ± 0.032
S81F | -0.634 ± 0.11 | -0.262 ± 0.05
R82M | -0.367 ± 0.054 | -0.152 ± 0.081
T112M | -0.222 ± 0.049 | -0.109 ± 0.067
Q172C | -0.109 ± 0.019 | -0.24 ± 0.13
S64K | -0.363 ± 0.1 | -0.323 ± 0.14
S64N | -0.323 ± 0.27 | -0.289 ± 0.024
K60V | -0.501 ± 0.077 | -0.25 ± 0.12
K60M | -0.181 ± 0.043 | -0.0665 ± 0.055
T46R | -0.175 ± 0.074 | -0.0899 ± 0.1
R59P | -0.00271 ± 0.082 | 0.23 ± 0.059
G50Y | -0.185 ± 0.02 | -0.315 ± 0.059
G50E | 0.0403 ± 0.043 | -0.0226 ± 0.038
V185K | -0.123 ± 0.066 | -0.226 ± 0.12
V181D | -0.0978 ± 0.088 | -0.185 ± 0.13
H94K | -0.585 ± 0.13 | -0.212 ± 0.071

Variant | selection coefficient against synonymous wild-type codons (log2) (methotrexate 8.8 µM) | selection coefficient against synonymous wild-type codons (log2) (methotrexate 44 µM)
N191E | 0.0715 ± 0.027 | 0.0444 ± 0.079
N191I | -0.0913 ± 0.038 | -0.000751 ± 0.14
K171Q | -0.0484 ± 0.051 | -0.23 ± 0.2
D100G | -0.226 ± 0.035 | -0.274 ± 0.057
N23T | 0.0305 ± 0.037 | 0.0699 ± 0.04
N23K | -0.0433 ± 0.076 | -0.0133 ± 0.051
A12I | -0.00504 ± 0.08 | 0.0224 ± 0.12
A12V | 0.202 ± 0.019 | 0.183 ± 0.035
S111C | -0.123 ± 0.017 | -0.198 ± 0.049
S111D | 0.00522 ± 0.022 | 0.254 ± 0.11
F199L | 0.223 ± 0.045 | 0.411 ± 0.1
F199Q | 0.774 ± 0.047 | 1.02 ± 0.038
S41T | -0.0779 ± 0.073 | 0.0432 ± 0.23
Y109A | 0.135 ± 0.022 | 0.146 ± 0.097
E84L | -0.422 ± 0.09 | -0.227 ± 0.11
K30P | -0.135 ± 0.074 | -0.0145 ± 0.097
L177N | -0.241 ± 0.033 | -0.233 ± 0.1
L177Q | -0.167 ± 0.027 | -0.203 ± 0.056
L29Y | 0.183 ± 0.043 | 0.257 ± 0.041
V11S | 0.406 ± 0.075 | 0.46 ± 0.077
G91V | -0.0699 ± 0.019 | -0.0807 ± 0.13
G91I | -0.153 ± 0.034 | 0.0107 ± 0.073
T49P | -0.0117 ± 0.041 | -0.11 ± 0.073

Variant | selection coefficient against synonymous wild-type codons (log2) (methotrexate 8.8 µM) | selection coefficient against synonymous wild-type codons (log2) (methotrexate 44 µM)
W27G | 0.0431 ± 0.087 | 0.0832 ± 0.076
V150I | -0.0595 ± 0.04 | -0.148 ± 0.24
L98F | -0.00854 ± 0.045 | 0.00767 ± 0.092
V54P | -0.226 ± 0.062 | -0.245 ± 0.13
V54C | -0.136 ± 0.087 | -0.174 ± 0.075
L167E | 0.0214 ± 0.0092 | 0.0198 ± 0.094
S136D | -0.0566 ± 0.045 | -0.0677 ± 0.08
S136M | -0.136 ± 0.017 | 0.00986 ± 0.074
S136L | -0.212 ± 0.063 | -0.189 ± 0.14
S16A | -0.0986 ± 0.075 | -0.138 ± 0.17
S16C | -0.152 ± 0.062 | -0.122 ± 0.05
S16N | -0.0233 ± 0.069 | -0.0718 ± 0.065
S16I | -0.22 ± 0.041 | -0.252 ± 0.19
T61H | -0.605 ± 0.056 | -0.358 ± 0.056
T61F | -0.328 ± 0.34 | -0.069 ± 0.39
G18L | -0.466 ± 0.063 | -0.176 ± 0.1
G18A | -0.0979 ± 0.087 | -0.0941 ± 0.19
E198S | 0.0825 ± 0.044 | -0.0505 ± 0.15
E198T | -0.0876 ± 0.12 | -0.206 ± 0.13
S163N | 0.0357 ± 0.018 | -0.0184 ± 0.059
S163H | -0.0115 ± 0.096 | -0.0748 ± 0.12
V55R | -0.535 ± 0.062 | -0.301 ± 0.053
Y93C | -0.546 ± 0.09 | -0.337 ± 0.069

Variant | selection coefficient against synonymous wild-type codons (log2) (methotrexate 8.8 µM) | selection coefficient against synonymous wild-type codons (log2) (methotrexate 44 µM)
Y93M | -0.162 ± 0.048 | -0.248 ± 0.16
D32H | -0.511 ± 0.043 | -0.262 ± 0.097
E192Y | 0.00428 ± 0.026 | -0.103 ± 0.089
E192N | 0.162 ± 0.021 | 0.115 ± 0.071
D2N | 0.139 ± 0.026 | -0.0635 ± 0.081
D2Y | 0.0525 ± 0.1 | -0.0299 ± 0.093
D2E | 0.315 ± 0.011 | 0.315 ± 0.046
D2C | -0.11 ± 0.07 | 0.0939 ± 0.15
I141P | -0.72 ± 0.062 | -0.217 ± 0.078
Q51P | -0.185 ± 0.082 | -0.105 ± 0.1
Q51F | -0.272 ± 0.11 | -0.231 ± 0.068
Q51M | -0.105 ± 0.034 | -0.0946 ± 0.069
F36I | 0.34 ± 0.021 | 0.5 ± 0.04
C129A | 0.353 ± 0.028 | 0.488 ± 0.045
C129M | 0.17 ± 0.025 | 0.201 ± 0.02
R140M | -0.019 ± 0.023 | -0.0717 ± 0.034
R140A | 0.151 ± 0.039 | 0.188 ± 0.047
R140G | 0.0713 ± 0.024 | 0.121 ± 0.062
R140T | 0.0992 ± 0.048 | 0.102 ± 0.046
V78S | -0.624 ± 0.11 | -0.211 ± 0.073
V78A | -0.816 ± 0.051 | -0.269 ± 0.073
I158F | -0.00748 ± 0.073 | -0.00147 ± 0.039
R170M | -0.0325 ± 0.065 | -0.0898 ± 0.027

Variant | selection coefficient against synonymous wild-type codons (log2) (methotrexate 8.8 µM) | selection coefficient against synonymous wild-type codons (log2) (methotrexate 44 µM)
I76Q | -0.611 ± 0.012 | -0.108 ± 0.076
T144Q | -0.674 ± 0.12 | -0.447 ± 0.045
T144S | -0.0616 ± 0.035 | -0.077 ± 0.11
R70E | 0.101 ± 0.055 | 0.093 ± 0.021
F156C | 0.165 ± 0.072 | 0.129 ± 0.047
S113A | -0.117 ± 0.033 | -0.13 ± 0.14
S113F | -0.357 ± 0.016 | -0.27 ± 0.12
S113T | -0.101 ± 0.07 | -0.0384 ± 0.094
V85F | -0.034 ± 0.031 | -0.0752 ± 0.14
I19M | 0.121 ± 0.01 | 0.18 ± 0.0089
Q4Y | -0.3 ± 0.06 | -0.0853 ± 0.14
Q4G | -0.128 ± 0.077 | -0.0968 ± 0.053
Q4T | -0.0676 ± 0.039 | -0.0459 ± 0.1
Q4L | -0.217 ± 0.099 | -0.223 ± 0.13
R47P | 0.182 ± 0.047 | 0.174 ± 0.019
D24C | -0.203 ± 0.19 | -0.104 ± 0.13
D24K | -0.0915 ± 0.074 | -0.0367 ± 0.12
D24L | -0.0319 ± 0.13 | -0.0397 ± 0.14
D24H | 0.29 ± 0.085 | 0.261 ± 0.053
L102I | -0.101 ± 0.012 | -0.236 ± 0.13
L102F | 0.252 ± 0.02 | 0.372 ± 0.014
E178K | -0.128 ± 0.06 | -0.209 ± 0.078
S69R | -0.1 ± 0.089 | -0.0258 ± 0.15
